According to PubChem BioAssay AID651820 (National Center for Advancing Translational Sciences (NCATS), 2012):
The campaign covered roughly 340,000 compounds. About 12,000 (3.5%) were called active. The shares of active, inactive and inconclusive entries below differ from those in the screen. The call rests on the fitted dose curve; in most records, active means well fitted inhibition curve with a large enough effect; inconclusive means small, poorly fitted or top-dose-only effect, or another doubt; inactive means no such curve, though single readings can be large or run the other way. No potency is given beside an inconclusive call; the fits are too rough.

Assay: qHTS Assay for Inhibitors of Hepatitis C Virus (HCV)
Conditions: Huh7.5.1 HCVcc-Cre (HCVcc is cell-culture hepatitis C virus) infection, luciferase reporter, 44 h; activity change, negative = inhibition: at 41.8 µM (top of the series)
Method in brief: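 Reporter virus HCVcc-Cre (~0.5 moi) infects cells exposed to compound; seeding density 1,000 cells/well with 4 h settling beforehand. Luminescence, 15 sec read, taken 44 h post-infection following a 15 min RT substrate incubation.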
On the % scale 0 is the no-effect control and ±100 the full control effect; potency means the concentration at half of the fitted maximal effect; tags describe the fitted curve by direction and shape.

Compound	Potency	activity change, negative = inhibition
CCc1c(C)sc(NC(=O)c2cc(-c3ccc(O)cc3)on2)c1C#N	inconclusive [inhibitor, full curve]	
Cc1ccc2nc(N3CCN(S(=O)(=O)c4ccc5c(c4)OCCO5)CC3)c(C#N)cc2c1	active: 14.1 µM	
COc1ccc(CCNc2ncnc3c2oc2ccccc23)cc1OC	active: 3.16 µM	
O=C(CSc1nnc(-c2ccccn2)n1-c1ccc(Cl)cc1)Nc1ccc2c(c1)OCO2	inconclusive [inhibitor, partial curve]	
CC(C)(C)C1CCc2c(sc(NC(=O)c3ccncc3)c2C(N)=O)C1 (stereo unspecified)	inconclusive [inhibitor, single point]	
C=CCn1c(SC(C)C(=O)NCc2ccc3c(c2)OCO3)nc2scc(-c3ccccc3)c2c1=O (stereo unspecified)	inconclusive [inhibitor, partial curve]	
COc1cc(OC)cc(-c2c(-c3cccs3)c3cc(-c4cc(OC)c(OC)c(OC)c4)ccc3n2C)c1	inconclusive [inhibitor, full curve]	
Cc1cc(C)cc(NC(=O)CN2CCC(C(=O)c3ccccc3)CC2)c1	inconclusive [inhibitor, single point]	
CCOC(=O)C1(CCOc2ccccc2)CCN(Cc2cccc(-n3cccn3)c2)CC1	active: 12.6 µM	
COc1cc(NC(=O)C/C(C)=N/NC(=O)c2ccccn2)c(OC)cc1Cl		inactive: 13.8%
Cc1cccc(NC(=O)C2CCN(S(=O)(=O)c3ccc4ccccc4c3)CC2)n1	inconclusive [inhibitor, single point]	
CC(=O)c1ccc(Oc2cc(C)nc(N3CCOCC3)n2)cc1	inconclusive [inhibitor, partial curve]	
CCOc1ccc(NC(=O)CN(C)C(=O)c2ccccc2OCc2cccc(C)c2)cc1OCC	active: 10 µM	
CCOC(=O)c1c(NC(=O)C(c2ccccc2)c2ccccc2)sc2c1C1CCN2CC1	inconclusive [inhibitor, partial curve]	
Cn1nnc(NCc2cc(Br)ccc2OCc2ccccc2F)n1	inconclusive [inhibitor, single point]	
Cc1ccc(S(=O)(=O)CC(=O)Nc2nc(-c3ccccc3)cs2)cc1	inconclusive [inhibitor, single point]	
CCc1ccc(OC)c(S(=O)(=O)N2CCN(C(=O)c3ccco3)CC2)c1		inactive: -3.62%
O=C(Nc1cccc(NC(=O)c2sc3ccccc3c2Cl)c1)c1ccco1	inconclusive [inhibitor, partial curve]	
O=C(CSc1nc2ccccc2s1)N1c2ccccc2Sc2ccccc21	inconclusive [inhibitor, partial curve]	
CCN1CCc2c(C#N)c(NCc3ccccc3)nc(N(CC)CC)c2C1	inconclusive [inhibitor, single point]	
Cc1ccc(Nc2nc(Cl)nc(NC3CCCCC3)n2)cc1	inconclusive [inhibitor, partial curve]	
C/C(=N\NC(=O)c1ccc(COc2ccccc2)cc1)c1ccncc1		inactive: 5.25%
CCN(CC)C(=O)c1[nH]cnc1C(=O)NC1CCN(C(=O)OC(C)(C)C)CC1	inconclusive [inhibitor, single point]	
COc1ccc(-c2nnn(CC(=O)c3c[nH]c4ccccc34)n2)cc1OC	inconclusive [inhibitor, single point]	

Compound	Potency	activity change, negative = inhibition
CCOc1ccccc1C(=O)N[C@H](C(=O)Nc1nc2c(s1)CCCC2)C(C)C	inconclusive [inhibitor, single point]	
COc1ccccc1NC(=O)c1ccc(-c2ccccc2[N+](=O)[O-])o1	active: 11.2 µM	
CCOc1ccc(-c2nc(C#N)c(N3CCOCC3)o2)cc1	inconclusive [inhibitor, partial curve]	
Cc1ccc2cc(CN(Cc3ccco3)C(=O)c3cccs3)c(=O)[nH]c2c1	inconclusive [inhibitor, partial curve]	
Cn1cccc1/C=C1\SC(=Nc2ccc(O)cc2)NC1=O	inconclusive [inhibitor, partial curve]	
COc1cc(/C=C(\C#N)C(=O)NCc2ccccc2)ccc1OCc1ccc(C(=O)O)cc1		inactive: -3.52%
CN(Cc1ccccc1)C1CCCN(C(=O)COc2ccccc2Cl)C1 (stereo unspecified)	inconclusive [inhibitor, single point]	
Cc1ccnc(NC(=O)Nc2ccc(F)cc2)c1		inactive: 12.7%
C=CCOc1cccc(C(=O)N2CCCC(Nc3ccc4c(c3)OCCO4)C2)c1 (stereo unspecified)	inconclusive [inhibitor, single point]	
O=C(COC(=O)C1CC(=O)N(Cc2ccco2)C1)Nc1nc(-c2ccc(F)cc2)cs1 (stereo unspecified)	inconclusive [inhibitor, single point]	
Nc1nc2c(ncn2[C@H]2C[C@H](O)[C@@H](CO)O2)c(=O)[nH]1		inactive: -7.47%
Cc1ccc(S(=O)(=O)/N=C(\N)Nc2nc(C)c3cc(C)ccc3n2)cc1	inconclusive [inhibitor, partial curve]	
COc1cccc(/C=N/Nc2ncc(C(F)(F)F)cc2Cl)c1O	active: 5.62 µM	
Cc1nnc(N/N=C/c2cccc(C(F)(F)F)c2)n1N		inactive: 20.2%
CCCn1c(-c2cccs2)nc2ccccc21	inconclusive [inhibitor, single point]	
Cc1ccc(S(=O)(=O)Nc2ccc3c(c2)CC(=O)N([C@H](C)CO)C[C@H](C)[C@H](CN(C)Cc2ccc4c(c2)OCO4)O3)cc1	inconclusive [inhibitor, single point]	
Cc1noc2ncnc(N3CCN(c4cccc(Cl)c4)CC3)c12	active: 10 µM	
COc1ccc(CN2CCOCCOCCOCCOCC2)cc1		inactive: 8.87%
CC(C)Cn1c(N)c(C(=O)COC(=O)C2Cc3ccccc3CN2S(C)(=O)=O)c(=O)n(C)c1=O (stereo unspecified)	active: 11.2 µM	
O=C(OCC(=O)N1CCCC1=O)c1cc2ccccc2o1		inactive: -3.94%
COC(=O)N/N=C/c1cccs1		inactive: 9.68%
Cc1cccc(N2CCN(C(=O)c3nn(C)c4c3CS(=O)(=O)c3ccccc3-4)CC2C)c1 (stereo unspecified)	inconclusive [inhibitor, partial curve]	
CCOc1ccc(NC(=O)C23CC4CC(C2)CC(c2ccccc2)(C4)C3)cc1	inconclusive [inhibitor, single point]	
O=[N+]([O-])c1cccc(NC(=S)N2CCc3ccccc32)c1	inconclusive [inhibitor, single point]	

Compound	Potency	activity change, negative = inhibition
Cc1cc([N+](=O)[O-])nn1CCCC(=O)Nc1cc(Oc2ccc(F)cc2)cc([N+](=O)[O-])c1	inconclusive [inhibitor, single point]	
COc1ccc(Nc2c3c(c(C#N)c4nc5ccccc5n24)CCC3)cc1		inactive: -38.5%
O=C(O)C1=C[C@@H](c2ccc(Br)cc2)C[C@@H](OCCCCO)O1		inactive: 20.5%
O/N=C/c1ccc(OCc2ccccc2)c(Cl)c1		inactive: 10.7%
C[C@]12CC[C@@H]3c4ccc(O)cc4CC[C@H]3[C@@H]1CC[C@@H]2OC(=O)CCC(=O)O	inactive	
CCOC(=O)[C@H]1[C@H]2COc3ccc(Cl)cc3[C@@H]2N2C(=O)c3cc(OC)ccc3NC(=O)[C@@]12C	inconclusive [inhibitor, single point]	
OCC1CCCN(Cc2ccc(-c3ccccc3)cc2)C1 (stereo unspecified)	inconclusive [inhibitor, partial curve]	
Cc1cccc(-c2nn(-c3ccccc3)cc2C(=O)NCC(c2cccs2)N2CCOCC2)c1 (stereo unspecified)	inconclusive [inhibitor, single point]	
CCn1c(C)cc(C=C2C(=O)c3ccccc3C2=O)c1C	inconclusive [inhibitor, single point]	
CCCOc1cccc(-c2nnc(NC(=O)c3ccco3)s2)c1		inactive: -7.53%
COC(=O)c1cn(Nc2ncc(C(F)(F)F)cc2Cl)c(=O)c2ccccc12	inconclusive [inhibitor, single point]	
CCOC(=O)Cn1c(=O)n(Cc2ccc(C)cc2)c(=O)c2cccnc21	active: 0.794 µM	
C=CCn1c(SC(C)C(=O)NCCC2=CCCCC2)nc2ccccc2c1=O (stereo unspecified)	inconclusive [inhibitor, single point]	
N#Cc1cc2cc3c(cc2nc1SCC(=O)N1CCOCC1)OCCO3		inactive: 4.03%
CCOC(=O)C1(CCOc2ccccc2)CCN(Cc2cc(OC)c(O)cc2Cl)CC1	active: 11.2 µM	
Cc1nc2ccccc2c(C)c1C(=O)c1ccccc1	inconclusive [inhibitor, single point]	
O=C(NCC1CCCO1)c1nc2c(nnn2Cc2ccccc2Cl)c(=O)[nH]1 (stereo unspecified)		inactive: 7.71%
CN1CCN(c2nc(-c3cccnc3)nc3ccccc23)CC1		inactive: -24%
COc1ccc(-c2cc3nnc(-c4ccccc4)nc3s2)cc1		inactive: 4.67%
CN(C(=O)c1cc2nc(-c3ccco3)cc(C(F)(F)F)n2n1)C1CCCCC1	inconclusive [inhibitor, single point]	
CC(Sc1nnc2c(n1)[nH]c1ccccc12)C(=O)NC1CCCCC1 (stereo unspecified)	active: 5.62 µM	
Cc1ccccc1OCCC(=O)Nc1ccc(S(=O)(=O)N(C)C2CCN(C)CC2)cc1	inconclusive [inhibitor, single point]	
COc1ccc(/C=N\NC(=O)c2ccc(F)cc2)cc1COc1ccccc1C(N)=O	inconclusive [inhibitor, partial curve]	
